Reference: the supplement of paper PMC7125110
± gives the standard error. Variants at the background level are over-represented here.

B1: glmS ribozyme (parent)
chain: AUAAAAGCGCCAGAACUACAGAAAUGUAGUUGACGAGGAGGAGGUUUAUCGAAUUUUCGGCGGAUGCCUCCAAA

Experiments:
Conditions in all cases: with glucosamine-6-phosphate
glucosamine-6-phosphate [1] = variants of: B1; assay: self-cleavage kobs at 640 uM GlcN6P; higher = faster cleavage; RNA array
Procedure, shortened: (§1)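 kcat and KM were obtained from weighted Michaelis–Menten fits across concentrations of kobs values. Those came from one- or two-exponential decay fits to per-tile medians normalised to baseline and to non-cleaving reference variants. The variants were barcoded ribozymes transcribed in situ by E. coli RNA polymerase on sequenced MiSeq chips and tracked through a hybridised Cy3 probe at 37 °C, with 40 μM to 10 mM glucosamine-6-phosphate in HEPES/KCl/Mg(OAc)2 buffer flowed in.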

glucosamine-6-phosphate [2] = variants of: B1; assay: self-cleavage kobs at 2500 uM GlcN6P; higher = faster cleavage; RNA array
Procedure, shortened: as §1

glucosamine-6-phosphate [3] = variants of: B1; assay: self-cleavage kobs at 160 uM GlcN6P; higher = faster cleavage; RNA array
Procedure, shortened: as §1

glucosamine-6-phosphate [4] = variants of: B1; assay: self-cleavage kobs at 10000 uM GlcN6P; higher = faster cleavage; RNA array
Procedure, shortened: as §1

Variant	self-cleavage kobs at 640 uM GlcN6P (glucosamine-6-phosphate [1]) [s⁻¹]	self-cleavage kobs at 2500 uM GlcN6P (glucosamine-6-phosphate [2]) [s⁻¹]	self-cleavage kobs at 160 uM GlcN6P (glucosamine-6-phosphate [3]) [s⁻¹]	self-cleavage kobs at 10000 uM GlcN6P (glucosamine-6-phosphate [4]) [s⁻¹]
AUAAAAGCUCCAGAACUACAGAAAUGUAGUUGACGAGGAGGAGGUUUAUCGAAUUUUCGACGGAUGCCUCCAAA [G9U G60A]	< 1e-05	< 1e-05	–	–
AUAAAAGCCCCAGAACUACAGAAAUGUAGUUGACGAGCAGGAGGUUUAUCGAAUUUUCGGCCGAUGUCUCCAAA [G9C G38C G62C C67U]	< 1e-05	< 1e-05	< 1e-05	–
AUAAAAGCUCCAGAACUACAGAAAUGUAGUUGACGAGGAGGAGGUUUAUUGAAUUUUCGGCGGAUGCCUCCAAA [G9U C50U]	< 1e-05	–	< 1e-05	< 1e-05
AUAAAAGCUCCAGAACUACAGAAAUGUAGUAGACGAGGAGGAGGUUUAUCGAAUUUUCGGCGGAGGCCUCCAAA [G9U U31A U65G]	< 1e-05	< 1e-05	< 1e-05	–
AUAAAAGCGACCGAACUACAGAAAUGUAGUUGACGAGGAGGAGGUUUAUCGAAUUAUCGGCGGAUGCCUCCAAA [C10A A12C U56A]	7.12e-05 ± 3e-05	0.000306 ± 0.00011	–	0.00015 ± 2.7e-05
AUAAAAGCCCCAGAACUACAGAAAUGUAUUUGACUAGGAGGAGGUUGAUCGAAUUUUCGGCGGAGGCCUCCAAA [G9C G29U G35U U47G U65G]	< 1e-05	< 1e-05	–	–
AUAAAAGCUCCAGAACUACAGAAAUGUAGUUGACGAGGAGGAGGUUUAUCGAAUUUUCGGCGCAUGCCUCCAAA [G9U G63C]	< 1e-05	–	–	–
AUAAAAGCUCCAGAACUACAGAAAUGUAGUUGACGAGGAGGAGGUUUAUCGAAUUUUCCGCGGAUGCCUCCAAA [G9U G59C]	< 1e-05	< 1e-05	< 1e-05	< 1e-05
AUAAAAGCCCCAGAACUACAGAAAUGUAGUUGACGAGGAGGAGGUUUAUCGAAUUAUCGGCUGAUGCCUCCAAA [G9C U56A G62U]	< 1e-05	–	–	–
AUAAAAGCUCCAGAACUACAGAAAUGUAGUUGACGCGUAGGAGGUUUAUCGAAUUUUCGUCGGAUGCCUCAAAA [G9U A36C G38U G60U C71A]	< 1e-05	< 1e-05	–	–
AUAAAAGCUCCAGAACUACAGAAAUGUAGUUGACGAGGAGGAGGUUUAUCGAAUUCUCGGCGGAUGCCUCCAAA [G9U U56C]	< 1e-05	< 1e-05	< 1e-05	< 1e-05
AUAAAAGCUCCAGAACUACAGAAAUGUAGGUGACGAGGAGGAGGUUUAUCAAAUUUUCGGCGGAUGCCUCCAAA [G9U U30G G51A]	< 1e-05	< 1e-05	–	–
AUAAAAGCCCCAAAUCUACAGAAAUGUAAUUGACGAGGAGGAGGUUUAUCGAAUUUUCGGCGGAUGUAUCCAAA [G9C G13A A15U G29A C67U C68A]	< 1e-05	–	–	–
AUAAAAGCUCCACAACUACAGAAAUGUAGUUGACGAGGAGGUGGUUUAUCGAAUUUUCGGCGGAUGCCUCCAAA [G9U G13C A42U]	< 1e-05	< 1e-05	< 1e-05	–
AUAAAAGCUCCAAAACUACAGAAAUGUAGUUGACGAGGAGGAGGUUUAUCGAAUUUUCGGCGGAUGCCUCCAAA [G9U G13A]	< 1e-05	–	< 1e-05	< 1e-05
AUAAAAGCUCCAGAACUACAGAAAUGUAGUUGACGAGGAGGCAGUUUAUCGAAUUUUCGGCGGAUCCCUCCAAA [G9U A42C G43A G66C]	< 1e-05	< 1e-05	< 1e-05	–
AUAAAAGCUUCAGAACUACAGAAAUGUAGAUGAUGAGGAGGAGGUUUAACGAAUUUUCGGCUGAUGCCUCCAAA [G9U C10U U30A C34U U49A G62U]	< 1e-05	–	–	–

Variant	self-cleavage kobs at 640 uM GlcN6P (glucosamine-6-phosphate [1]) [s⁻¹]	self-cleavage kobs at 2500 uM GlcN6P (glucosamine-6-phosphate [2]) [s⁻¹]	self-cleavage kobs at 160 uM GlcN6P (glucosamine-6-phosphate [3]) [s⁻¹]	self-cleavage kobs at 10000 uM GlcN6P (glucosamine-6-phosphate [4]) [s⁻¹]
AUAAAAGCUCCCGAACUACAGAAAUGUAGUUGACGACGAGCAGGUUUAUCGAAUUUUCGGCGGAUGCCUCCAAA [G9U A12C G37C G41C]	< 1e-05	< 1e-05	< 1e-05	–
AUAAAAGCUCCAGAACUACAGAAAUGUAGUUGACGAUGAGGAGGUUUAUCGAAUUUUCGGCGGAUGCCUCCAAA [G9U G37U]	< 1e-05	< 1e-05	< 1e-05	–
AUAAAAGCCCCAGAAAUACAGAAAUGUAGUUGUCGAGGAGCAGGUUUAUCGAAUUUUCGUCGGAUGCCUCCAAA [G9C C16A A33U G41C G60U]	< 1e-05	< 1e-05	–	–
AUAAAAGCUCCAGAACUACAGAAAUGUAGUUGACGAGGAGGAGUUUUUUCGAAUUUUCGGCGGAUGCCUCCAAA [G9U G44U A48U]	< 1e-05	–	< 1e-05	–
AUAAAAGCUCCAGAACUACAGAAAUGUAGUUGACGAGGAGGAGGUUUAUCGAAUUAUCGGCGUUUGCCUCCAAA [G9U U56A G63U A64U]	< 1e-05	–	–	–
AUAAAAGCCCAAGAACUACAGAAAUGUAGUUGUCGAGGAGGAGGUUUAUCGAAUUUUCGGCGGAUGCCUCUAAA [G9C C11A A33U C71U]	< 1e-05	< 1e-05	< 1e-05	–
AUAAAAGCUCCAGAACUACAGAAAUGUAGUUGACGAGGAGGAGGUGUAUCGAAUUUUGGGCGGAUGCCUCCAAA [G9U U46G C58G]	< 1e-05	< 1e-05	–	–
AUAAAAGCUCCAGAACUACAGAAAUGUAGUUGACGGGGUGGAGGUUUAUCGAAUUUUCGGCGGAUGCCUCCAAA [G9U A36G A39U]	< 1e-05	< 1e-05	–	–
AUAAAAGCUCCAGAACUACAGAAAUGUAUUUGACGAGGAGGAGGUUUAUCGAAUUUCCGGCGGAUGCGUCCAAA [G9U G29U U57C C68G]	< 1e-05	–	< 1e-05	–
AUAAAAGCCCCAGAACUACAGAAAUGUAGUUGACGAUGAGGAGGUUUAUCGAAUUGUCGGCGGAUGCCUCCAAA [G9C G37U U56G]	< 1e-05	< 1e-05	–	–
AUAAAAGCUCCAGAACUACAGAAAUGUAAUUGACGAGGAGGAGGUAUAUCUAAUUUUCGGCGGAUGUCUCCAAA [G9U G29A U46A G51U C67U]	< 1e-05	–	–	–
AUAAAAGCCCCAGAACUACAGAAAUGUAGUUGACGAGGAGGAGGUUUAUCGAAUUUUCGGCGGAUGGCUCAAAA [G9C C67G C71A]	< 1e-05	< 1e-05	–	–
AUAAAAGCUCCAGAACUACAGAAAUGUAGUUGACGAGGAGGAGGAUUAUCGAAUUUUCGGCGGAUGCCUCCAAA [G9U U45A]	< 1e-05	–	< 1e-05	–
AUAAAAGCUCCUGAACUACAGAAAUGUAGUUGACGAGGAGGCGGUUUAUCGAAUUUUCGGCGGAUGCCUCCAAA [G9U A12U A42C]	< 1e-05	–	–	–
AUAAAAGCUCCAGAACUACAGAAAUGUAGUUGGCGAGGCGGUGGUUUAUCAAAUUUUCGGCGGAUGCCUCCAAA [G9U A33G A39C A42U G51A]	< 1e-05	–	–	–
AUAAAAGCCCCAGAACUACAGAAAUGUAGUUGACGAGGAGGAGGUUUAUCUAAUUUUCGGCGGAUGCCUCCAAA [G9C G51U]	< 1e-05	–	< 1e-05	< 1e-05
AUAAAAGCUCCAGAACUACAGAAAUGUAGUUGACGAGGAGGAAGUUUGUCGAAUUUUCGGCGGAUGCCUCCAAA [G9U G43A A48G]	< 1e-05	–	–	–
